{"source": "PubChem BioAssay AID504832", "about": "(National Center for Advancing Translational Sciences (NCATS), 2011)", "note": "The whole screen tested about 310,000 compounds, of which about 18,000 (5.8%) were called active. Inconclusive results, whose numbers are uncertain, are shown with a selection of clear calls. The call rests on the fitted dose curve; in most records, active means well fitted inhibition curve with a large enough effect; inconclusive means small, poorly fitted or top-dose-only effect, or another doubt; inactive means no such curve, though single readings can be large or run the other way. Potencies of inconclusive entries are left out as doubtful fits. On the % scale 0 is the no-effect control and ±100 the full control effect; potency means the concentration at half of the fitted maximal effect; tags describe the fitted curve by direction and shape.", "data": [{"experiment": "Primary qHTS for delayed death inhibitors of the malarial parasite plastid, 48 hour incubation", "details": "P. falciparum luciferase growth in erythrocytes; series mostly up to 28.7 µM; activity change, negative = inhibition: at the top concentration", "summary_of_the_method": "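Luminescence readout; reporter = integrated firefly luciferase in P. falciparum. RBC culture at 2% hematocrit, 0.1% parasitemia final, 37 C/5% CO2; decreased signal taken as growth inhibition.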", "values": [{"smiles": "O=S(=O)(NCCN1CCOCC1)c1cccc(C(F)(F)F)c1", "activity change, negative = inhibition": "inactive: 18.9%"}, {"smiles": "CCC(CO)Oc1cc(NC(=O)c2ccc(C)cc2)c2ncn(C(C)C)c2c1", "note": "(stereo not given)", "Potency": "inconclusive [inhibitor, partial curve]"}, {"smiles": "Cc1nnc(C)n1/N=C/c1cccc(Oc2ccccc2)c1", "Potency": "inconclusive [inhibitor, single point]"}, {"smiles": "Cc1nn(-c2ccccc2)c(C)c1/C=N/n1c(-c2ccc(C(C)(C)C)cc2)n[nH]c1=S", "Potency": "inconclusive [inhibitor, single point]"}, {"smiles": "NC(=O)CC(NC(=O)Cc1cccc2ccccc12)c1ccc(N2CCc3ccccc3C2)c([N+](=O)[O-])c1", "note": "(stereo not given)", "Potency": "inconclusive [inhibitor, single point]"}, {"smiles": "COCCN(CCOC)c1nc(-c2ccc(Cl)cc2)nc2ccccc12", "activity change, negative = inhibition": "inactive: 0%"}, {"smiles": "Cc1c(CN2CCC(CO)(Cc3cccc(C(F)(F)F)c3)CC2)c2ccccc2n1C", "Potency": "active: 3.7 µM"}, {"smiles": "CN1COc2ccc3ccccc3c2C1", "activity change, negative = inhibition": "inactive: -36.9%"}, {"smiles": "CCCNc1nc2c(c(=O)n(C)c(=O)n2C)n1CCCc1ccccc1", "Potency": "inconclusive [inhibitor, partial curve, poor fit]"}, {"smiles": "Cc1ccc(NC(=O)N2CCc3ccccc3C2)c(C)c1", "activity change, negative = inhibition": "inactive: -5.98%"}, {"smiles": "COc1ccc(C(=O)Nc2nc3c(s2)Cc2cc(OC)ccc2-3)cc1", "Potency": "active: 5.86 µM"}, {"smiles": "NC(=S)NN=C(c1ccccc1)c1ccccc1", "Potency": "inconclusive [inhibitor, single point]"}, {"smiles": "CC(C)(C)c1cc(NC(=O)COC(=O)c2ccc(O)cc2O)n(-c2ccccc2)n1", "Potency": "inconclusive [inhibitor, partial curve]"}, {"smiles": "Cc1c(C2OC(=O)C3(CCCCC3)C(=O)C2(C)C)c(=O)n(-c2ccccc2)n1C", "note": "(stereo not given)", "Potency": "inconclusive [inhibitor, single point]"}, {"smiles": "CCC1Oc2ccc(C)cc2N(CC(=O)N2CCOCC2)C1=O", "note": "(stereo not given)", "activity change, negative = inhibition": "inactive: 1.6%"}, {"smiles": "CC1(C)OC(c2ccccc2)=C/C(=C\\C=N\\NC(=O)c2ccncc2)O1", "Potency": "inconclusive [inhibitor, single point]"}, {"smiles": "COC(=O)c1[nH]c2c(c1C)C(=O)CC(c1ccccc1)C2", "note": "(stereo not given)", "Potency": "inconclusive [inhibitor, single point]"}, {"smiles": "Cc1ccc(-n2c(SCC(=O)Nc3ccc4c(c3)OCCO4)nnc2-c2ccco2)cc1", "Potency": "inconclusive [inhibitor, single point]"}, {"smiles": "CCOc1cc(C(C(=O)NCC2CCCO2)N(C(=O)Cn2nnc3ccccc32)c2ccccc2C(C)=O)ccc1O", "note": "(stereo not given)", "Potency": "inconclusive [inhibitor, partial curve, poor fit]"}, {"smiles": "CC(C)NC(=O)c1c(O)c2ccccc2[nH]c1=O", "Potency": "active: 10.4 µM"}, {"smiles": "Cn1c(=O)c2cc(S(=O)(=O)NC(Cc3ccccc3)C(=O)NCC3CCCO3)ccc2n(C)c1=O", "note": "(stereo not given)", "Potency": "inconclusive [inhibitor, partial curve, poor fit]"}, {"smiles": "CCOc1cnc(-c2c(-c3c(F)cccc3Cl)noc2C)o1", "Potency": "inconclusive [inhibitor, single point]"}, {"smiles": "CCOC(=O)[C@H]1[C@H]2COc3cc(OC)ccc3[C@@H]2N2C(=O)c3cc(OC)ccc3NC(=O)[C@@]12C", "Potency": "active: 1.31 µM"}, {"smiles": "Cc1ccc(-n2nnnc2SC(C)C(=O)Nc2ccccc2-c2ccccc2)cc1", "note": "(stereo not given)", "Potency": "inconclusive [inhibitor, single point]"}, {"smiles": "Fc1ccc(CN2CC[C@H]3C=CCc4cccc(c43)C2)cc1", "Potency": "active: 10.4 µM"}, {"smiles": "C[C@]12CCC3C(CCC4=CC(O)CC[C@@]43/C=N/O)C1(O)CCC2C1=CC(=O)OC1", "note": "(stereo not given in full)", "activity change, negative = inhibition": "inactive: -10.7%"}, {"smiles": "CC1CCCN(CCC(=O)Nc2ccc(F)c(F)c2)C1", "note": "(stereo not given)", "activity change, negative = inhibition": "inactive: 3.26%"}, {"smiles": "O=C(Nc1ccccn1)c1cc2cc([N+](=O)[O-])ccc2s1", "activity change, negative = inhibition": "inactive: 98.4%"}, {"smiles": "COc1ccccc1NS(=O)(=O)c1cc(NC(=O)CCc2nc3ccccc3c(=O)[nH]2)ccc1C", "Potency": "inconclusive [inhibitor, partial curve]"}, {"smiles": "CCOc1ccc(NC(=O)CN(C)C(=O)c2cccc(S(=O)(=O)N3CCCC3)c2)cc1OCC", "Potency": "inconclusive [inhibitor, single point]"}, {"smiles": "Cc1[nH]c2ccccc2c1C(=O)COC(=O)c1nccnc1N", "Potency": "inconclusive [inhibitor, single point]"}, {"smiles": "Cc1cccc(OCCCn2c(CCNC(=O)C(C)C)nc3ccccc32)c1", "activity change, negative = inhibition": "inactive: -6.11%"}, {"smiles": "C=CCn1cc(CN2CCC(C(=O)Nc3cccc(-c4cccc(F)c4)c3)CC2)c(C)n1", "Potency": "active: 14.7 µM"}, {"smiles": "COc1ccccc1N1CCN(CCCn2c(=S)[nH]c3ccccc3c2=O)CC1", "Potency": "active: 7.38 µM"}, {"smiles": "CCCCn1c(SCC(=O)N2CCN(c3ccccc3)CC2)nc2ccsc2c1=O", "Potency": "inconclusive [inhibitor, single point]"}, {"smiles": "O=C(COc1ccc(Cl)cc1Cl)N(Cc1ccco1)C1CCS(=O)(=O)C1", "note": "(stereo not given)", "activity change, negative = inhibition": "inactive: 2.71%"}, {"smiles": "N/C(=N\\OC(=O)c1cnn(-c2ccccc2)c1C(F)(F)F)c1cc(C(F)(F)F)cc(C(F)(F)F)c1", "Potency": "inconclusive [inhibitor, single point]"}, {"smiles": "COc1ccccc1-c1cc(C(=O)N/N=C/c2ccoc2)c2ccccc2n1", "Potency": "active: 9.28 µM"}, {"smiles": "CN(Cc1ccon1)C(=O)C1CCN(C2CCN(CCCc3ccccc3)CC2)CC1", "Potency": "inconclusive [inhibitor, single point]"}, {"smiles": "Cc1ccc(NC(=O)c2ccc([N+](=O)[O-])o2)cc1S(=O)(=O)N1CCOCC1", "Potency": "active: 9.28 µM"}, {"smiles": "COc1cc(NC(=O)c2noc3c2CCCC3)c(OC)cc1Cl", "activity change, negative = inhibition": "inactive: 26%"}, {"smiles": "Cc1ccc(-c2cc(C(F)F)nc(N3CCOCC3)n2)cc1", "Potency": "inconclusive [inhibitor, single point]"}, {"smiles": "O=C(N/N=C/c1cn(-c2ccccc2)nc1-c1cc2ccccc2o1)c1c[nH]c2ccccc12", "Potency": "active: 3.29 µM"}, {"smiles": "CCOC(=O)NC(=O)/C(C#N)=N\\Nc1cccc(Cl)c1", "activity change, negative = inhibition": "inactive: -2.2%"}, {"smiles": "CC(C)(C)c1ccccc1NC(=O)c1c(O)c2cccc3c2n(c1=O)CC3", "Potency": "inconclusive [inhibitor, single point]"}]}]}
